{"source": "the supplement of paper PMC8728848", "binders": {"B1": {"name": "DC-ASGPR S+GEE (Homo sapiens) (protein)", "chain": "MTRTYENFQYLENKVKVQGFKNGPLPLQSLLQRLRSGPCHLLLSLGLGLLLLVIICVVGFQNSKFQRDLVTLRTDFSNFTSNTVAEIQALTSQGSSLEETIASLKAEVEGFKQERQAVHSEMLLRVQQLVQDLKKLTCQVATINNNGEEASTEGTCCPVNWVEHQDSCYWFSHSGMSWAEAEKYCQLKNAHLVVINSREEQNFVQKYLGSAYTWMGLSDPEGAWKWVDGTDYATGFQNWKPGQPDDWQGHGLGGGEDCAHFHPDGRWNDDVCQRPYHWVCEAGLGQTSQESH"}}, "experiment_in_all_cases": "glycan array binding signal (z-score within array); higher = stronger binding", "conditions_in_all_cases": "glycan notation: IUPAC condensed, linker removed", "key": {"[1]": {"target": "Neu5Ac(a2-3)Gal6S(b1-4)[Fuc(a1-3)]GlcNAc", "procedure,_shortened": "(§1)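 The binding signal is a Z-score computed within each array. Data were drawn from 3228 arrays in the Consortium for Functional Glycomics database, restricted to those with a known protein sequence. Scores were averaged over arrays of the same protein sequence at different concentrations or buffers, and over linkers, and negative values can be taken as non-binding.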"}, "Neu5Ac(a2-3)GalNAc": {"target": "Neu5Ac(a2-3)GalNAc", "procedure,_shortened": "as §1"}, "[2]": {"target": "Neu5Ac(a2-3)GalNAc(b1-4)GlcNAc", "procedure,_shortened": "as §1"}, "[3]": {"target": "Neu5Ac(a2-3)[GalNAc(b1-4)]Gal(b1-4)Glc", "procedure,_shortened": "as §1"}, "[4]": {"target": "Neu5Ac(a2-3)[GalNAc(b1-4)]Gal(b1-4)GlcNAc", "procedure,_shortened": "as §1"}, "[5]": {"target": "Neu5Ac(a2-3)[GalNAc(b1-4)]Gal(b1-4)GlcNAc(b1-3)GalNAc", "procedure,_shortened": "as §1"}, "[6]": {"target": "Neu5Ac(a2-3)[Neu5Ac(a2-6)]GalNAc", "procedure,_shortened": "as §1"}, "Neu5Ac(a2-6)Gal": {"target": "Neu5Ac(a2-6)Gal", "procedure,_shortened": "as §1"}, "[7]": {"target": "Neu5Ac(a2-6)Gal(b1-3)GlcNAc(b1-3)[Gal(b1-4)GlcNAc(b1-6)]Gal(b1-4)Glc", "procedure,_shortened": "as §1"}, "Neu5Ac(a2-6)Gal(b1-4)Glc": {"target": "Neu5Ac(a2-6)Gal(b1-4)Glc", "procedure,_shortened": "as §1"}, "[8]": {"target": "Neu5Ac(a2-6)Gal(b1-4)GlcNAc", "procedure,_shortened": "as §1"}, "[9]": {"target": "Neu5Ac(a2-6)Gal(b1-4)GlcNAc(b1-2)Man", "procedure,_shortened": "as §1"}, "[10]": {"target": "Neu5Ac(a2-6)Gal(b1-4)GlcNAc(b1-2)Man(a1-3)Man(b1-4)GlcNAc(b1-4)GlcNAc", "procedure,_shortened": "as §1"}, "[11]": {"target": "Neu5Ac(a2-6)Gal(b1-4)GlcNAc(b1-2)Man(a1-3)[Gal(b1-4)GlcNAc(b1-2)Man(a1-6)]Man(b1-4)GlcNAc(b1-4)GlcNAc", "procedure,_shortened": "as §1"}, "[12]": {"target": "Neu5Ac(a2-6)Gal(b1-4)GlcNAc(b1-2)Man(a1-3)[GlcNAc(b1-2)Man(a1-6)]Man(b1-4)GlcNAc(b1-4)GlcNAc", "procedure,_shortened": "as §1"}, "[13]": {"target": "Neu5Ac(a2-6)Gal(b1-4)GlcNAc(b1-2)Man(a1-3)[GlcNAc(b1-4)][Neu5Ac(a2-6)Gal(b1-4)GlcNAc(b1-2)Man(a1-6)]Man(b1-4)GlcNAc(b1-4)GlcNAc", "procedure,_shortened": "as §1"}, "[14]": {"target": "Neu5Ac(a2-6)Gal(b1-4)GlcNAc(b1-2)Man(a1-3)[Man(a1-6)]Man(b1-4)GlcNAc(b1-4)GlcNAc", "procedure,_shortened": "as §1"}, "[15]": {"target": "Neu5Ac(a2-6)Gal(b1-4)GlcNAc(b1-2)Man(a1-3)[Neu5Ac(a2-3)Gal(b1-4)GlcNAc(b1-2)Man(a1-6)]Man(b1-4)GlcNAc(b1-4)GlcNAc", "procedure,_shortened": "as §1"}, "[16]": {"target": "Neu5Ac(a2-6)Gal(b1-4)GlcNAc(b1-2)Man(a1-3)[Neu5Ac(a2-6)Gal(b1-4)GlcNAc(b1-2)Man(a1-6)]Man(b1-4)GlcNAc(b1-4)GlcNAc", "procedure,_shortened": "as §1"}, "[17]": {"target": "Neu5Ac(a2-6)Gal(b1-4)GlcNAc(b1-2)Man(a1-3)[Neu5Ac(a2-6)Gal(b1-4)GlcNAc(b1-2)Man(a1-6)]Man(b1-4)GlcNAc(b1-4)[Fuc(a1-6)]GlcNAc", "procedure,_shortened": "as §1"}, "[18]": {"target": "Neu5Ac(a2-6)Gal(b1-4)GlcNAc(b1-2)Man(a1-6)Man(b1-4)GlcNAc(b1-4)GlcNAc", "procedure,_shortened": "as §1"}, "[19]": {"target": "Neu5Ac(a2-6)Gal(b1-4)GlcNAc(b1-2)Man(a1-6)[Gal(b1-4)GlcNAc(b1-2)Man(a1-3)]Man(b1-4)GlcNAc(b1-4)GlcNAc", "procedure,_shortened": "as §1"}, "[20]": {"target": "Neu5Ac(a2-6)Gal(b1-4)GlcNAc(b1-2)Man(a1-6)[GlcNAc(b1-2)Man(a1-3)]Man(b1-4)GlcNAc(b1-4)GlcNAc", "procedure,_shortened": "as §1"}, "[21]": {"target": "Neu5Ac(a2-6)Gal(b1-4)GlcNAc(b1-2)Man(a1-6)[Man(a1-3)]Man(b1-4)GlcNAc(b1-4)GlcNAc", "procedure,_shortened": "as §1"}, "[22]": {"target": "Neu5Ac(a2-6)Gal(b1-4)GlcNAc(b1-2)[Neu5Ac(a2-6)Gal(b1-4)GlcNAc(b1-4)]Man(a1-3)[GlcNAc(b1-4)][Neu5Ac(a2-6)Gal(b1-4)GlcNAc(b1-2)[Neu5Ac(a2-6)Gal(b1-4)GlcNAc(b1-6)]Man(a1-6)]Man(b1-4)GlcNAc(b1-4)GlcNAc", "procedure,_shortened": "as §1"}, "[23]": {"target": "Neu5Ac(a2-6)Gal(b1-4)GlcNAc(b1-2)[Neu5Ac(a2-6)Gal(b1-4)GlcNAc(b1-4)]Man(a1-3)[GlcNAc(b1-4)][Neu5Ac(a2-6)Gal(b1-4)GlcNAc(b1-4)Man(a1-6)]Man(b1-4)GlcNAc(b1-4)GlcNAc", "procedure,_shortened": "as §1"}, "[24]": {"target": "Neu5Ac(a2-6)Gal(b1-4)GlcNAc(b1-2)[Neu5Ac(a2-6)Gal(b1-4)GlcNAc(b1-6)]Man(a1-6)[Neu5Ac(a2-6)Gal(b1-4)GlcNAc(b1-2)Man(a1-3)][GlcNAc(b1-4)]Man(b1-4)GlcNAc(b1-4)GlcNAc", "procedure,_shortened": "as §1"}, "[25]": {"target": "Neu5Ac(a2-6)Gal(b1-4)GlcNAc(b1-3)Gal(b1-3)GlcNAc", "procedure,_shortened": "as §1"}, "[26]": {"target": "Neu5Ac(a2-6)Gal(b1-4)GlcNAc(b1-3)Gal(b1-4)GlcNAc", "procedure,_shortened": "as §1"}, "[27]": {"target": "Neu5Ac(a2-6)Gal(b1-4)GlcNAc(b1-3)Gal(b1-4)GlcNAc(b1-2)Man(a1-3)[Neu5Ac(a2-6)Gal(b1-4)GlcNAc(b1-3)Gal(b1-4)GlcNAc(b1-2)Man(a1-6)]GalNAc", "procedure,_shortened": "as §1"}, "[28]": {"target": "Neu5Ac(a2-6)Gal(b1-4)GlcNAc(b1-3)Gal(b1-4)GlcNAc(b1-3)Gal(b1-4)GlcNAc", "procedure,_shortened": "as §1"}, "[29]": {"target": "Neu5Ac(a2-6)Gal(b1-4)GlcNAc(b1-3)Gal(b1-4)GlcNAc(b1-3)Gal(b1-4)GlcNAc(b1-2)Man(a1-3)[Neu5Ac(a2-6)Gal(b1-4)GlcNAc(b1-3)Gal(b1-4)GlcNAc(b1-3)Gal(b1-4)GlcNAc(b1-2)Man(a1-6)]GalNAc", "procedure,_shortened": "as §1"}, "[30]": {"target": "Neu5Ac(a2-6)Gal(b1-4)GlcNAc(b1-3)Gal(b1-4)GlcNAc(b1-3)GalNAc", "procedure,_shortened": "as §1"}, "[31]": {"target": "Neu5Ac(a2-6)Gal(b1-4)GlcNAc(b1-3)Gal(b1-4)GlcNAc(b1-3)[Neu5Ac(a2-6)Gal(b1-4)GlcNAc(b1-3)Gal(b1-4)GlcNAc(b1-6)]GalNAc", "procedure,_shortened": "as §1"}, "[32]": {"target": "Neu5Ac(a2-6)Gal(b1-4)GlcNAc(b1-3)Gal(b1-4)GlcNAc(b1-6)[Gal(b1-3)]GalNAc", "procedure,_shortened": "as §1"}, "[33]": {"target": "Neu5Ac(a2-6)Gal(b1-4)GlcNAc(b1-3)Gal(b1-4)[Fuc(a1-3)]GlcNAc(b1-3)Gal(b1-4)[Fuc(a1-3)]GlcNAc", "procedure,_shortened": "as §1"}, "[34]": {"target": "Neu5Ac(a2-6)Gal(b1-4)GlcNAc(b1-3)GalNAc", "procedure,_shortened": "as §1"}}, "note": "This is one part of the list."}
{"binder": "B1", "values": [{"measurement": "glycan array binding signal (z-score)", "setting": "[1]", "result": -0.314}, {"measurement": "glycan array binding signal (z-score)", "setting": "Neu5Ac(a2-3)GalNAc", "result": 0.029}, {"measurement": "glycan array binding signal (z-score)", "setting": "[2]", "result": -0.206}, {"measurement": "glycan array binding signal (z-score)", "setting": "[3]", "result": 1.02}, {"measurement": "glycan array binding signal (z-score)", "setting": "[4]", "result": 0.566}, {"measurement": "glycan array binding signal (z-score)", "setting": "[5]", "result": 0.224}, {"measurement": "glycan array binding signal (z-score)", "setting": "[6]", "result": -0.339}, {"measurement": "glycan array binding signal (z-score)", "setting": "Neu5Ac(a2-6)Gal", "result": -0.325}, {"measurement": "glycan array binding signal (z-score)", "setting": "[7]", "result": -0.355}, {"measurement": "glycan array binding signal (z-score)", "setting": "Neu5Ac(a2-6)Gal(b1-4)Glc", "result": -0.322}, {"measurement": "glycan array binding signal (z-score)", "setting": "[8]", "result": -0.313}, {"measurement": "glycan array binding signal (z-score)", "setting": "[9]", "result": -0.319}, {"measurement": "glycan array binding signal (z-score)", "setting": "[10]", "result": -0.345}, {"measurement": "glycan array binding signal (z-score)", "setting": "[11]", "result": -0.301}, {"measurement": "glycan array binding signal (z-score)", "setting": "[12]", "result": -0.263}, {"measurement": "glycan array binding signal (z-score)", "setting": "[13]", "result": -0.325}, {"measurement": "glycan array binding signal (z-score)", "setting": "[14]", "result": -0.375}, {"measurement": "glycan array binding signal (z-score)", "setting": "[15]", "result": -0.343}, {"measurement": "glycan array binding signal (z-score)", "setting": "[16]", "result": -0.214}, {"measurement": "glycan array binding signal (z-score)", "setting": "[17]", "result": -0.339}, {"measurement": "glycan array binding signal (z-score)", "setting": "[18]", "result": -0.301}, {"measurement": "glycan array binding signal (z-score)", "setting": "[19]", "result": -0.355}, {"measurement": "glycan array binding signal (z-score)", "setting": "[20]", "result": -0.093}, {"measurement": "glycan array binding signal (z-score)", "setting": "[21]", "result": -0.301}, {"measurement": "glycan array binding signal (z-score)", "setting": "[22]", "result": -1.23}, {"measurement": "glycan array binding signal (z-score)", "setting": "[23]", "result": -0.321}, {"measurement": "glycan array binding signal (z-score)", "setting": "[24]", "result": -0.317}, {"measurement": "glycan array binding signal (z-score)", "setting": "[25]", "result": -0.335}, {"measurement": "glycan array binding signal (z-score)", "setting": "[26]", "result": -0.326}, {"measurement": "glycan array binding signal (z-score)", "setting": "[27]", "result": -0.238}, {"measurement": "glycan array binding signal (z-score)", "setting": "[28]", "result": -0.332}, {"measurement": "glycan array binding signal (z-score)", "setting": "[29]", "result": 0.132}, {"measurement": "glycan array binding signal (z-score)", "setting": "[30]", "result": -1.4}, {"measurement": "glycan array binding signal (z-score)", "setting": "[31]", "result": -0.267}, {"measurement": "glycan array binding signal (z-score)", "setting": "[32]", "result": -0.042}, {"measurement": "glycan array binding signal (z-score)", "setting": "[33]", "result": -0.251}, {"measurement": "glycan array binding signal (z-score)", "setting": "[34]", "result": 0.361}]}
